# Measured values from ChEMBL document CHEMBL5634115, “Exploring novel anticancer pyrazole benzenesulfonamides featuring tail approach strategy as carbonic anhydrase inhibitors” (Eur J Med Chem, 2023).
# Tests used:
# Experiment in all cases: cells
# CCRF-CEM [1] = format: functional; conditions: Homo sapiens, time 48 hrs
# MOLT-4 = format: functional; conditions: Homo sapiens, time 48 hrs
# SR [2] = format: functional; conditions: Homo sapiens, time 48 hrs
# A549 [3] = format: functional; conditions: Homo sapiens, time 48 hrs
# EKVX [4] = format: functional; conditions: Homo sapiens, time 48 hrs
# NCI-H322M = format: functional; conditions: Homo sapiens, time 48 hrs
# HCT-116 [5] = format: functional; conditions: Homo sapiens, time 48 hrs
# SW-620 = format: functional; conditions: Homo sapiens, time 48 hrs
# SF-268 [6] = format: functional; conditions: Homo sapiens, time 48 hrs
# SNB-19 = format: functional; conditions: Homo sapiens, time 48 hrs
# SNB-75 = format: functional; conditions: Homo sapiens, time 48 hrs
# U-251 = format: functional; conditions: Homo sapiens, time 48 hrs
# Malme-3M [7] = format: functional; conditions: Homo sapiens, time 48 hrs
# M14 [8] = format: functional; conditions: Homo sapiens, time 48 hrs
# SK-MEL-5 [9] = format: functional; conditions: Homo sapiens, time 48 hrs
# UACC-257 = format: functional; conditions: Homo sapiens, time 48 hrs
# UACC-62 [10] = format: functional; conditions: Homo sapiens, time 48 hrs
# OVCAR-3 [11] = format: functional; conditions: Homo sapiens, time 48 hrs
# OVCAR-4 = format: functional; conditions: Homo sapiens, time 48 hrs
# OVCAR-5 = format: functional; conditions: Homo sapiens, time 48 hrs
# NCI/ADR-RES [12] = format: functional; conditions: Homo sapiens, time 48 hrs
# 786-0 = format: functional; conditions: Homo sapiens, time 48 hrs
# A498 = format: functional; conditions: Homo sapiens, time 48 hrs
# RXF 393 = format: functional; conditions: Homo sapiens, time 48 hrs
# PC-3 [13] = format: functional; conditions: Homo sapiens, time 48 hrs
# DU-145 = format: functional; conditions: Homo sapiens, time 48 hrs
# MDA-MB-231 = format: functional; conditions: Homo sapiens, time 48 hrs
# BT-549 [14] = format: functional; conditions: Homo sapiens, time 48 hrs
# MDA-MB-468 = format: functional; conditions: Homo sapiens, time 48 hrs
# CCRF-CEM [15] = format: functional; conditions: Homo sapiens, time 48 hrs; remark: listed apart in the source
# A549 [16] = format: functional; conditions: Homo sapiens, time 48 hrs; remark: listed apart in the source
# EKVX [17] = format: functional; conditions: Homo sapiens, time 48 hrs; remark: listed apart in the source
# HOP-62 = format: functional; conditions: Homo sapiens, time 48 hrs
# HOP-92 [18] = format: functional; conditions: Homo sapiens, time 48 hrs
# NCI-H23 [19] = format: functional; conditions: Homo sapiens, time 48 hrs
# NCI-H522 = format: functional; conditions: Homo sapiens, time 48 hrs
# COLO 205 = format: functional; conditions: Homo sapiens, time 48 hrs
# HCC 2998 = format: functional; conditions: Homo sapiens, time 48 hrs
# KM12 = format: functional; conditions: Homo sapiens, time 48 hrs
# SF-268 [20] = format: functional; conditions: Homo sapiens, time 48 hrs; remark: listed apart in the source
# SF-295 [21] = format: functional; conditions: Homo sapiens, time 48 hrs
# LOX IMVI = format: functional; conditions: Homo sapiens, time 48 hrs
# Malme-3M [22] = format: functional; conditions: Homo sapiens, time 48 hrs; remark: listed apart in the source
# M14 [23] = format: functional; conditions: Homo sapiens, time 48 hrs; remark: listed apart in the source
# UACC-62 [24] = format: functional; conditions: Homo sapiens, time 48 hrs; remark: listed apart in the source
# OVCAR-3 [25] = format: functional; conditions: Homo sapiens, time 48 hrs; remark: listed apart in the source
# OVCAR-8 = format: functional; conditions: Homo sapiens, time 48 hrs
# UO-31 = format: functional; conditions: Homo sapiens, time 48 hrs
# PC-3 [26] = format: functional; conditions: Homo sapiens, time 48 hrs; remark: listed apart in the source
# BT-549 [27] = format: functional; conditions: Homo sapiens, time 48 hrs; remark: listed apart in the source
# K562 = conditions: Homo sapiens, K562, 48 h
# HL-60(TB) = conditions: Homo sapiens, HL-60, 48 h, read-out: LC50
# RPMI-8226 = conditions: Homo sapiens, RPMI-8226, 48 h, read-out: LC50
# SR [28] = conditions: Homo sapiens, 48 h, read-out: LC50
# HOP-92 [29] = conditions: Homo sapiens, HOP-92, 48 h, read-out: LC50
# NCI-H23 [30] = conditions: Homo sapiens, NCI-H23, 48 h, read-out: LC50
# HCT-116 [31] = conditions: Homo sapiens, HCT-116, 48 h, read-out: LC50
# HCT-15 = conditions: Homo sapiens, HCT-15, 48 h, read-out: LC50
# HT-29 = conditions: Homo sapiens, HT-29, 48 h, read-out: LC50
# SF-295 [32] = conditions: Homo sapiens, SF-295, 48 h, read-out: LC50
# SK-MEL-28 = conditions: Homo sapiens, SK-MEL-28, 48 h, read-out: LC50
# SK-MEL-5 [33] = conditions: Homo sapiens, SK-MEL-5, 48 h, read-out: LC50
# NCI/ADR-RES [34] = conditions: Homo sapiens, 48 h, read-out: LC50
# CAKI-1 = conditions: Homo sapiens, CAKI-1, 48 h, read-out: LC50
# TK-10 = conditions: Homo sapiens, TK-10, 48 h, read-out: LC50
smiles,measurement,setting,value
CCOC(=O)c1ccc(N/N=C/c2cn(-c3ccc(S(N)(=O)=O)cc3)nc2-c2ccc(OC)cc2)cc1,GI50,CCRF-CEM [1],3.03 µM
same,GI50,MOLT-4,2.72 µM
same,GI50,SR [2],2.5 µM
same,GI50,A549 [3],3.58 µM
same,GI50,EKVX [4],3.44 µM
same,GI50,NCI-H322M,3.35 µM
same,GI50,HCT-116 [5],3.17 µM
same,GI50,SW-620,3.86 µM
same,GI50,SF-268 [6],4.03 µM
same,GI50,SNB-19,4.21 µM
same,GI50,SNB-75,2.76 µM
same,GI50,U-251,4.1 µM
same,GI50,Malme-3M [7],3.68 µM
same,GI50,M14 [8],2.13 µM
same,GI50,SK-MEL-5 [9],1.8 µM
same,GI50,UACC-257,12.3 µM
same,GI50,UACC-62 [10],4 µM
same,GI50,OVCAR-3 [11],2.4 µM
same,GI50,OVCAR-4,6.37 µM
same,GI50,OVCAR-5,3.34 µM
same,GI50,NCI/ADR-RES [12],2.61 µM
same,GI50,786-0,2.23 µM
same,GI50,A498,9.46 µM
same,GI50,RXF 393,1.96 µM
same,GI50,PC-3 [13],2.86 µM
same,GI50,DU-145,3.02 µM
same,GI50,MDA-MB-231,2.64 µM
same,GI50,BT-549 [14],4.79 µM
same,GI50,MDA-MB-468,2.32 µM
same,TGI,CCRF-CEM [15],11.7 µM
same,TGI,A549 [16],> 100 µM
same,TGI,EKVX [17],> 100 µM
same,TGI,HOP-62,> 100 µM
same,TGI,HOP-92 [18],14.4 µM
same,TGI,NCI-H23 [19],22.5 µM
same,TGI,NCI-H522,5.44 µM
same,TGI,COLO 205,45 µM
same,TGI,HCC 2998,4.42 µM
same,TGI,KM12,4.48 µM
same,TGI,SF-268 [20],36.3 µM
same,TGI,SF-295 [21],18.7 µM
same,TGI,LOX IMVI,3.5 µM
same,TGI,Malme-3M [22],17.5 µM
same,TGI,M14 [23],4.82 µM
same,TGI,UACC-62 [24],23.3 µM
same,TGI,OVCAR-3 [25],5.55 µM
same,TGI,OVCAR-8,> 100 µM
same,TGI,UO-31,13 µM
same,TGI,PC-3 [26],> 100 µM
same,TGI,BT-549 [27],> 100 µM
same,TGI,K562,14.5 µM
same,CC50,HL-60(TB),> 100 µM
same,CC50,RPMI-8226,> 100 µM
same,CC50,SR [28],> 100 µM
same,CC50,HOP-92 [29],> 100 µM
same,CC50,NCI-H23 [30],> 100 µM
same,CC50,HCT-116 [31],> 100 µM
same,CC50,HCT-15,> 100 µM
same,CC50,HT-29,> 100 µM
same,CC50,SF-295 [32],62.9 µM
same,CC50,SK-MEL-28,> 100 µM
same,CC50,SK-MEL-5 [33],6.76 µM
same,CC50,NCI/ADR-RES [34],> 100 µM
same,CC50,CAKI-1,> 100 µM
same,CC50,TK-10,> 100 µM
CCOC(=O)c1ccc(N/N=C/c2cn(-c3ccc(S(N)(=O)=O)cc3)nc2-c2ccccc2)cc1,GI50,CCRF-CEM [1],2.85 µM
same,GI50,MOLT-4,1.71 µM
same,GI50,SR [2],2 µM
same,GI50,A549 [3],3.15 µM
same,GI50,EKVX [4],2.75 µM
same,GI50,NCI-H322M,2.83 µM
same,GI50,HCT-116 [5],2.58 µM
same,GI50,SW-620,2.52 µM
same,GI50,SF-268 [6],2.63 µM
same,GI50,SNB-19,3.35 µM
same,GI50,SNB-75,2.32 µM
same,GI50,U-251,2.84 µM
same,GI50,Malme-3M [7],1.97 µM
same,GI50,M14 [8],2 µM
same,GI50,SK-MEL-5 [9],1.64 µM
same,GI50,UACC-257,5.4 µM
same,GI50,UACC-62 [10],2.65 µM
same,GI50,OVCAR-3 [11],2.2 µM
same,GI50,OVCAR-4,4.23 µM
same,GI50,OVCAR-5,1.88 µM
same,GI50,NCI/ADR-RES [12],2.11 µM
same,GI50,786-0,2.18 µM
same,GI50,A498,11.8 µM
same,GI50,RXF 393,1.77 µM
same,GI50,PC-3 [13],2.92 µM
same,GI50,DU-145,2.77 µM
same,GI50,MDA-MB-231,2.09 µM
same,GI50,BT-549 [14],3.45 µM
same,GI50,MDA-MB-468,1.81 µM
same,TGI,CCRF-CEM [15],9.81 µM
same,TGI,A549 [16],> 100 µM
same,TGI,EKVX [17],27.1 µM
same,TGI,HOP-62,12.4 µM
same,TGI,HOP-92 [18],7.02 µM
same,TGI,NCI-H23 [19],5.49 µM
same,TGI,NCI-H522,4.54 µM
same,TGI,COLO 205,10.7 µM
same,TGI,HCC 2998,3.58 µM
same,TGI,KM12,3.82 µM
same,TGI,SF-268 [20],8.14 µM
same,TGI,SF-295 [21],5.03 µM
same,TGI,LOX IMVI,2.95 µM
same,TGI,Malme-3M [22],4.69 µM
same,TGI,M14 [23],4.79 µM
same,TGI,UACC-62 [24],9.22 µM
same,TGI,OVCAR-3 [25],5.02 µM
same,TGI,OVCAR-8,15.7 µM
same,TGI,UO-31,11.2 µM
same,TGI,PC-3 [26],20.8 µM
same,TGI,BT-549 [27],12.6 µM
same,TGI,K562,6.39 µM
same,CC50,HL-60(TB),> 100 µM
same,CC50,RPMI-8226,> 100 µM
same,CC50,SR [28],> 100 µM
same,CC50,HOP-92 [29],> 100 µM
same,CC50,NCI-H23 [30],45.2 µM
same,CC50,HCT-116 [31],51.5 µM
same,CC50,HCT-15,6.86 µM
same,CC50,HT-29,32.2 µM
same,CC50,SF-295 [32],23.8 µM
same,CC50,SK-MEL-28,43.6 µM
same,CC50,SK-MEL-5 [33],5.5 µM
same,CC50,NCI/ADR-RES [34],> 100 µM
same,CC50,CAKI-1,> 100 µM
same,CC50,TK-10,> 100 µM
